Consider 38 compounds from PubChem BioAssay AID1745853 (National Center for Advancing Translational Sciences (NCATS), 2022).

The structures appear in SMILES notation. Some of the results follow. These are further read-outs of the screen, such as a control signal, another cell line or another target. No call is given for them. Peptide text beside a SMILES is read from it. * marks the point of attachment. AMC = Cc1cc(=O)oc2cc(N*)ccc12; Cbz = O=C(OCc1ccccc1)*

Common to all, as to test: Primary Screen for Target Class Profiling of Small Molecule Inhibitors of Methyltransferases
In assay [1] the target is Glycine N-methyltransferase (Homo sapiens) (UniProt Q14749). The settings on record: purified enzyme, MTase-Glo SAH luminescence; measured here: GNMT inhibition; at 40 µM; stronger effect = lower value. The procedure, abridged: (§1)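 Each enzyme was assayed with SAM and its substrate. SAH formation detected by MTase-Glo luminescence; single-point 40 uM screen[…].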

Assay [2] has as its target Guanidinoacetate N-methyltransferase (Homo sapiens) (UniProt Q14353). The settings on record: purified enzyme, MTase-Glo SAH luminescence; measured here: GAMT inhibition; at 40 µM; stronger effect = lower value. The procedure, abridged: as §1
Assay [3] deals with Histamine N-methyltransferase (Homo sapiens) (UniProt P50135). Particulars: purified enzyme, MTase-Glo SAH luminescence; measured here: HNMT inhibition; at 40 µM; stronger effect = lower value. Summed up:
as §1

In assay [4] the target is Nicotinamide N-methyltransferase (Homo sapiens) (UniProt P40261). The settings on record: purified enzyme, MTase-Glo SAH luminescence; measured here: NNMT inhibition; at 40 µM; stronger effect = lower value. Summed up: as §1
For assay [5], the target named is Phenylethanolamine N-methyltransferase (Homo sapiens) (UniProt P11086). The settings on record: purified enzyme, MTase-Glo SAH luminescence; measured here: PNMT inhibition; at 40 µM; stronger effect = lower value. Summed up:
as §1
% is set by controls: 0 for no effect and ±100 for the full control effect.

`COc1cccc(CNC(=O)Cn2ccc3cc(S(=O)(=O)N4CCC(C)CC4)ccc32)c1`: the activity change, negative = inhibition is 2.62% in assay [1]; 5.17% in assay [2]; 0.467% in assay [3]; -0.298% in assay [4]; 0.951% in assay [5].

On to `Cc1ccc(C)c(N2C(=O)c3cc4sccc4n3CC2(C)C(=O)NC2CCCC(C)C2C)c1` (stereo not given), for which the activity change, negative = inhibition in assay [1] was determined as 1.75%; in assay [2], 0.966%; in assay [3], 0.239%; in assay [4] it was 4.47%; in assay [5], 2.96%.

With `CCc1cccc(NC(=O)Cn2nc3n(C)c(=O)c4ccc(C(=O)NC(C)CC)cc4n3c2=O)c1` (stereo not given), the activity change, negative = inhibition was 6.07% in assay [1]; 1.94% in assay [2]; 7.35% in assay [3]; -2.2% in assay [4]; 5.51% in assay [5].

Turning to `O=[S+]1([O-])N(c2ccccc2)C[C@@H](O)[C@]12CCN(Cc1ccc(OC(F)F)cc1)C2`, the activity change, negative = inhibition in assay [1] is -1.24%; in assay [2], 0.562%; in assay [3] it was 3.02%; in assay [4], -1.79%; in assay [5], -2.99%.

`COc1cccc(C(=O)N2CCC3(CCNCC3)CC2)c1C`: the activity change, negative = inhibition is -5.92% in assay [1]; -10.9% in assay [2]; -6.09% in assay [3]; -13.7% in assay [4]; -24.7% in assay [5].

For `Cc1ccc(-c2ncc(C(=O)N3CCC(Nc4ncccn4)CC3)c(=O)[nH]2)cc1`, the activity change, negative = inhibition in assay [1] was -7.31%; in assay [2], 0.46%; in assay [3] it was 0.563%; in assay [4], -0.078%; in assay [5], -0.584%.

On to `CCOC(=O)c1cc2n(n1)CC(C)(C(=O)NCc1ccccc1)N(Cc1cccc(Br)c1)C2=O` (stereo not given), for which the activity change, negative = inhibition was 5.13% in assay [1]; 0% in assay [2]; 10% in assay [3]; 2.79% in assay [4]; 4.84% in assay [5].

Turning to `O=C(c1cccc(F)c1)N1CCCC(CN2CCOCC2)CC1` (stereo not given), the activity change, negative = inhibition in assay [1] was -6.5%; in assay [2] it was -9.38%; in assay [3], -5.91%; in assay [4], -8%; in assay [5], -2.6%.

Regarding `CCCN1C(=O)c2cc3ccc(OC)cc3n2CC1(C)C(=O)NC1CCCCCC1` (stereo not given), the activity change, negative = inhibition in assay [1] came to 7.37%; in assay [2] it was 4.43%; in assay [3] it was 10.7%; in assay [4] it was 10.1%; in assay [5], 3.33%.

Regarding `COc1cc(CNCCc2ccc(Cl)cc2)ccc1OCC(O)CN1CCOCC1` (stereo not given), the activity change, negative = inhibition in assay [1] was -5.27%; in assay [2], -2.42%; in assay [3] it was -18.4%; in assay [4] it was -7.17%; in assay [5], -6.45%.

Consider `COc1cccc(NC(=O)N2Cc3c(sc4c3CCCC4)-n3cccc3C2C)c1` (stereo not given), for which the activity change, negative = inhibition in assay [1] was -0.568%; in assay [2] it was 0%; in assay [3], 1.43%; in assay [4], 2.21%; in assay [5], 4.34%.

Regarding `COc1ccc2cc3n(c2c1)CC(C)(C(=O)NCC1CCCO1)N(Cc1cccnc1)C3=O` (stereo not given), the activity change, negative = inhibition in assay [1] stood at 4.38%; in assay [2], 0.409%; in assay [3], 4.74%; in assay [4], 10.8%; in assay [5], 0.148%.

Take `O=S(=O)(c1ccc(Cl)cc1)c1nnn2c1nc(NCc1ccc(F)cc1)c1ccccc12`: the activity change, negative = inhibition in assay [1] is -2.54%; in assay [2], 2.06%; in assay [3], -0.504%; in assay [4], 3.96%; in assay [5], -3.71%.

Turning to `Cc1ccc(Cn2c(=O)c3ccccc3n3c(=O)n(CC(=O)Nc4ccc5c(c4)OCCO5)nc23)cc1`, the activity change, negative = inhibition in assay [1] came to 8.19%; in assay [2] it was 0.675%; in assay [3], 8.18%; in assay [4] it was 6.87%; in assay [5], 5.04%.

`CCc1cc(N2CCN(C(=O)[C@H]3CCC[C@@H](O)C3)CC2)ncn1`: the activity change, negative = inhibition in assay [1] was -1.09%; in assay [2], -3.96%; in assay [3], -2.01%; in assay [4], -3.81%; in assay [5], 2.32%.

As to `c1ccc(CNc2nc(N3CCOc4ccccc43)nc3c2CCCC3)cc1`, the activity change, negative = inhibition was 0.291% in assay [1]; -6.63% in assay [2]; 2.57% in assay [3]; -21.9% in assay [4]; -2.28% in assay [5].

On to `O=C(O)C1=NOC2CN(Cc3nc4ccccc4s3)CC12` (stereo not given), for which the activity change, negative = inhibition is -5.66% in assay [1]; -7.11% in assay [2]; -2.27% in assay [3]; -9.61% in assay [4]; -12.7% in assay [5].

On to `Fc1cccc(-c2nnn3c2nc(N2CCCC2)c2cc(Cl)ccc23)c1`, for which the activity change, negative = inhibition came to 4.48% in assay [1]; 0% in assay [2]; 9.89% in assay [3]; 13.7% in assay [4]; 3.3% in assay [5].

In the case of `Cc1ccc(C)c(Cn2nc3n(C)c(=O)c4ccc(C(=O)NC5CCCC5)cc4n3c2=O)c1`, the activity change, negative = inhibition is -4.61% in assay [1]; 0% in assay [2]; 10.5% in assay [3]; -5.42% in assay [4]; -1.81% in assay [5].

With `CC1CCCCC1NC(=O)C1(C)Cn2c(ccc2-c2ccco2)C(=O)N1Cc1ccc(F)cc1` (stereo not given), the activity change, negative = inhibition is 0.587% in assay [1]; 0% in assay [2]; 0.691% in assay [3]; -0.382% in assay [4]; -1.83% in assay [5].

For the compound `COc1ccccc1CNC(=O)C1(C)Cn2nc(-c3ccccc3)cc2C(=O)N1C1CCCCCC1` (stereo not given), the activity change, negative = inhibition in assay [1] is -1.14%; in assay [2], 5.53%; in assay [3] it was -0.36%; in assay [4] it was -3.77%; in assay [5] it was -1.53%.

As for `CCOC(=O)C1CCCN(c2nc3c(S(=O)(=O)c4ccccc4)nnn3c3ccccc23)C1` (stereo not given), the activity change, negative = inhibition in assay [1] was -21.7%; in assay [2] it was 1.26%; in assay [3] it was -2.63%; in assay [4] it was -3.07%; in assay [5] it was -4.84%.

In the case of `Cc1cccc(Cn2nc3n(CC(C)C)c(=O)c4ccc(C(=O)NC(C)C)cc4n3c2=O)c1`, the activity change, negative = inhibition stood at 3.87% in assay [1]; 0% in assay [2]; 5.53% in assay [3]; 2.56% in assay [4]; 5.8% in assay [5].

As for `COc1ccc2cc3n(c2c1)CC(C)(C(=O)NC1CCCC1)N(Cc1ccccc1Cl)C3=O` (stereo not given), the activity change, negative = inhibition in assay [1] is -1.66%; in assay [2] it was 5.33%; in assay [3], -1.46%; in assay [4], -5.42%; in assay [5], -6.91%.

As to `CS(=O)(=O)N1CCC(OC2CCN(C(=O)c3cccnc3)CC2)CC1`, the activity change, negative = inhibition was -0.261% in assay [1]; -1.02% in assay [2]; 1.56% in assay [3]; 0.376% in assay [4]; 2.97% in assay [5].

As to `CC(C)COc1cc(=O)n2c(c1C(=O)NC1CCCCC1)CCCCC2`, the activity change, negative = inhibition in assay [1] was 0.033%; in assay [2], -2.6%; in assay [3], 1.48%; in assay [4], 0.857%; in assay [5] it was -1.28%.

On to `CC1CCC(NC(=O)C2(C)Cn3c(nc4ccccc43)C(=O)N2CCCc2ccccc2)CC1` (stereo not given), for which the activity change, negative = inhibition in assay [1] was -4.47%; in assay [2], 0%; in assay [3], 8.15%; in assay [4], -8.61%; in assay [5], -6.46%.

Turning to `Cc1cc(=O)oc2cc(NC(=O)[C@H](CCC(=O)O)NC(=O)[C@H](CC(C)C)NC(=O)[C@H](CC(C)C)NC(=O)OCc3ccccc3)ccc12` (Cbz-Leu-Leu-Glu-{AMC}), the activity change, negative = inhibition is -5.15% in assay [1]; 17% in assay [2]; 7.53% in assay [3]; -78.3% in assay [4]; 2.56% in assay [5].

Consider `COc1cc2nc(N3CCN(C(=O)COc4c(OC)cccc4C(C)C)CC3)nc(N)c2cc1OC`, for which the activity change, negative = inhibition in assay [1] was -9.76%; in assay [2], 13.3%; in assay [3], 4.23%; in assay [4] it was -20.4%; in assay [5], 5.09%.

As to `CCC1(N2CCN(C(=O)c3ccccc3C(F)(F)F)CC2)CCN(C(=O)C(C)C)C1` (stereo not given), the activity change, negative = inhibition in assay [1] is -7.04%; in assay [2], -4%; in assay [3], -3.78%; in assay [4], -5.75%; in assay [5], 0.403%.

As for `C=Cc1ccc(Cn2nc3n(C(C)C)c(=O)c4ccc(C(=O)NC5CCCC5)cc4n3c2=O)cc1`, the activity change, negative = inhibition in assay [1] was 2.64%; in assay [2], 0%; in assay [3] it was 10.2%; in assay [4] it was -2.07%; in assay [5], 4.04%.

On to `NC(N)=NCCCCN=C(N)N`, for which the activity change, negative = inhibition in assay [1] is -8.28%; in assay [2], 1.84%; in assay [3] it was -1.87%; in assay [4] it was -9.09%; in assay [5], -1.88%.

With `Cn1c(=O)c2ccc(C(=O)NC3CCCCC3)cc2n2c(=O)n(CC(=O)NCc3ccccc3)nc12`, the activity change, negative = inhibition in assay [1] was -3.02%; in assay [2] it was -0.764%; in assay [3] it was -3.97%; in assay [4], -4.55%; in assay [5], -6.28%.

In the case of `C[S+](CC[C@H](N)C(=O)[O-])C[C@H]1O[C@@H](n2cnc3c(N)ncnc32)[C@H](O)[C@@H]1O` (stereo not given in full), the activity change, negative = inhibition in assay [1] was determined as 0.499%; in assay [2], 2.78%; in assay [3], 5.25%; in assay [4], 0.787%; in assay [5], 1.71%.

Regarding `COC(=O)[C@@H](NC(=O)[C@H](CC(C)C)NC(=O)N(Cc1ccccc1)C[C@@H](O)[C@H](Cc1ccccc1)NC(=O)OC(C)(C)C)C(C)C`, the activity change, negative = inhibition in assay [1] is -3.9%; in assay [2] it was -11%; in assay [3], 9.71%; in assay [4], -16.3%; in assay [5], -1.81%.

As to `CC/C=C/C=C/C1(C)OC(CC(CO)OC)=CC1=O` (stereo not given), the activity change, negative = inhibition is -2.93% in assay [1]; 2.52% in assay [2]; 4.92% in assay [3]; -7.17% in assay [4]; 1.64% in assay [5].

As to `COc1ccc(C(=O)N2CCC3(CC2)CN(c2ccccc2)C3=O)cc1OC`, the activity change, negative = inhibition in assay [1] was -8.53%; in assay [2] it was -15.1%; in assay [3] it was -5.34%; in assay [4] it was -16.1%; in assay [5], -8.98%.

As for `O=C(C1CCN(c2cnn(Cc3ccccc3)c(=O)c2)C1)N1CCCC1` (stereo not given), the activity change, negative = inhibition in assay [1] was -3.49%; in assay [2], -6.89%; in assay [3] it was -3.56%; in assay [4], -9.65%; in assay [5], -2.72%.
